Results: PubChem BioAssay AID493208 (National Center for Advancing Translational Sciences (NCATS), 2011)
About 340 (0.77%) of roughly 44,000 compounds were called active. Another 5% or so got no clear call; they are omitted. The call rests on the fitted dose curve; in most records, active means well fitted inhibition curve with a large enough effect; inconclusive means small, poorly fitted or top-dose-only effect; inactive means flat fitted curve, though single readings scatter. Some of the results follow.

Test: Acumen qHTS Assay for Inhibitors of the mTORC1 Signaling Pathway in MEF (Tsc2-/-, p53-/-) Cells: Sytravon;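 further: plate controls were DMSO for no effect and rapamycin for full effect; nearly all actives have a fitted effect of over 50% in size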
Details: phospho-rpS6 immunofluorescence/PI, 24 h; series mostly up to 38.3 µM; activity change, negative = inhibition: at the top concentration
Summary of the method: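 Cell-based qHTS: Tsc2-/- p53-/- MEF, 24 h cpd, 37 °C; fix/perm, anti-phospho-S6 Alexa-488 + PI; Acumen 488 nm scan; pS6/PI ratio, % positive cells; rapamycin 7.5 nM = inhibition ref; PI count = viability.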

Activity change, negative = inhibition, inactive:
CCc1ccccc1NC(=O)Cn1cc2c(n1)CCC(C)C2 (stereo not given) 2.79%
O=c1cc(-c2ccccc2)c2ccc3c(c2o1)CN(Cc1ccccc1)CO3 6.25%
CCc1ccc(NS(=O)(=O)c2ccc3[nH]cc(C(=O)N(C)Cc4ccco4)c(=O)c3c2)cc1 0.447%
CC(C)CN(CCNC(=O)c1cn(C)c2ccc(S(=O)(=O)N3CCCC3)cc2c1=O)CC(C)C -12.1%
CCCN(C(=O)CCNC(=O)Cn1cnc2ccccc2c1=O)c1cccc(C)c1 11.1%
Cc1nn(-c2ccc(N3CCCCC3)nn2)c(C)c1CCC(=O)NCc1ccc(Cl)cc1 -23.6%
CCC(C)NC(=O)c1sc2ncccc2c1-n1c(C)ccc1C (stereo not given) -14.7%
CCCc1cc(=O)[nH]c(Nc2cc(Cl)ccc2OC)n1 -4%
Cc1ccc(-n2nc(C(=O)N3CCN(c4cccc(C(F)(F)F)c4)CC3)c3c4ccccc4n(C)c3c2=O)cc1 -2.46%
CCOc1cc(C2c3c(oc4ccccc4c3=O)C(=O)N2c2ccccn2)ccc1O (stereo not given) 6.08%
Cc1ccc(C)c(-c2[nH]c3c(c2-c2c(-n4cccc4)n(C)c(=O)n(C)c2=O)c(=O)n(C)c(=O)n3C)c1 1.13%
Cc1cccc(NC(=O)COc2cccc3c(=O)n(C)ccc23)c1C -9.6%
CCOC(=O)c1ccc2[nH]c(CSc3nnc(-c4cccc(F)c4)n3C)cc(=O)c2c1 -1.77%
Cc1ccc(CNc2cc(C)nc3nc(-c4cccc(C)c4)nn23)cc1 -19.1%
COc1ccc(OC)c(NC(=O)c2cc(=O)c3c(C)cc(C)cc3o2)c1 2.19%
CCOC(=O)c1c(NC(=O)c2cc(Cl)ccc2Cl)sc2c1CCCC2 5.11%
Cc1ccc(CNc2nccn(-c3cc(C)cc(C)c3)c2=O)cc1 -7.37%
CN(C(=O)CSc1nc2ccc(NC(=O)COc3ccccc3)cc2s1)c1ccccc1 -16.6%
Cc1cn2c(=O)c(S(=O)(=O)NCc3ccccc3Cl)c(C)nc2s1 2.98%
Cc1cc(C)n(CCc2nc3c4ccccc4nc(N4CCN(c5ccc(F)cc5)CC4)n3n2)n1 -0.421%
CCN(C(=O)CSc1nc2n[nH]c(C)c2c(=N)n1-c1cccc(OC)c1)c1cccc(C)c1 -27.7%
COc1ccc(-c2ccc(CCC(=O)O)n2-c2ccc(Cl)cc2C)cc1 -21.8%
CCOC(=O)c1cccc(NC(=O)CCc2c(C)nn(-c3ccc(N4CCOCC4)nn3)c2C)c1 -9.32%
COc1ccc(C2Oc3nc(SC)nnc3-c3ccccc3N2C(C)=O)cc1 (stereo not given) 8.7%
CCc1ccc(-n2nc(CO)c(C(=O)NCc3ccccc3OC)n2)cc1 -4.27%
COCCCn1c(=O)c2sccc2n2c(CCCC(=O)NCc3ccc(F)cc3)nnc12 -2.45%
CCn1cc(S(=O)(=O)c2cccc(C)c2)c(=O)c2cc(F)c(N3CCN(c4ccccc4)CC3)cc21 3.29%
Cc1ccc2[nH]c3c(=O)n(CC(=O)NCCc4ccc(Cl)cc4)ncc3c2c1 3.64%
COc1ccc(NC(=O)C2CCN(c3cnccn3)CC2)cc1Cl 1.49%
CCc1ccc(-n2nc(CO)c(C(=O)NCC(c3ccccc3)c3ccccc3)n2)cc1 1.63%
Cc1ccc(N(Cc2cc3ccccc3[nH]c2=O)C(=O)c2cccc(Cl)c2)cc1 6.51%
CCN(CC)CCCNC(=O)CSc1nc2nc(C)c(Cc3c(F)cccc3Cl)c(C)n2n1 0%
Cc1ccc(-c2cn3c(n2)sc2cc(C(=O)NCc4cccs4)ccc23)c(C)c1 -10.1%
COc1ccc(OCC2c3cc(OC)c(OC)cc3CCN2C(=O)COc2ccc(Cl)cc2Cl)cc1 (stereo not given) 14.7%
COc1ccc(Cn2ccc3nc(C)c(C(=O)N4CCN(c5ccccc5OC)CC4)cc3c2=O)cc1 -0.644%
CC(C)NC(=O)C(c1ccccc1)N1Cc2ccccc2C1=O (stereo not given) 0%
CC(C)c1ccc2occ(CC(=O)Nc3ccccc3Cl)c2c1 -4.09%
Cc1ccc(C)c(NC(=O)Cn2c(=O)n(Cc3ccc4c(c3)OCO4)c(=O)c3oc4ccccc4c32)c1 2.32%
CC1=C(C(N)=O)C(c2cccc(C)c2)n2nc(-c3cccc(C)c3)nc2N1 (stereo not given) -7.29%
COc1ccc(-c2noc(CSc3nc(C)cc(=O)[nH]3)n2)cc1OC -15.7%
Cc1ccc(CSc2nnc(-n3c(=O)c(C#N)cc4c(=O)n5cc(C)ccc5nc43)s2)cc1 -0.53%
CCOC(=O)C1CCN(S(=O)(=O)c2ccc(N3CCCCS3(=O)=O)cc2)CC1 2.05%
CCn1c(SCc2ccc(F)cc2Cl)nc(=O)c2c(C(=O)OC)cc(C3CC3)nc21 -3.44%
CC(C)C1N=C2c3ccccc3N=C(SCC(=O)NCc3ccccc3Cl)N2C1=O (stereo not given) 6.42%
Cc1ccc(CNC(=O)c2cc(-c3ccc(C)cc3)nc3n[nH]c(-c4ccc(F)cc4)c23)cc1 0.362%
CCCn1c(=O)c2sccc2n2c(CCCC(=O)Nc3ccc(Oc4ccccc4)cc3)nnc12 -0.219%
COc1ccc(OC)c(CNC(=O)c2c(C)oc3ncn(C)c(=O)c23)c1 5.05%
O=C(c1ccc2c(c1)CCN2S(=O)(=O)c1ccc(Cl)cc1)N1CCN(c2ccccc2)CC1 1.89%
CCOc1ccc(CN2C(=O)c3ccccc3Sc3ccc(C(=O)OC)cc32)cc1 8.88%
CC(=O)Nc1ccc(S(=O)(=O)NCc2cccn2Cc2cccc(C)c2)cc1 0%
COc1ccc(CNC(=O)c2ccc3c(c2)N(Cc2ccccc2C)C(=O)c2ccccc2S3=O)cc1 (stereo not given) 3.74%
O=C(NCc1ccc(F)cc1)C1CCN(c2ncnc3c2nc2n3CCCCC2)CC1 1.34%
COc1cc(C(CC(=O)Nc2cc(C)ccc2C)N2Cc3ccccc3C2=O)cc(OC)c1OC (stereo not given) -10.7%
CC(C)(C)OC(=O)N1CCC(c2c(C(=O)N3CCN(c4ccccn4)CC3)cnn2-c2ccccc2Cl)CC1 -6.19%
CC(=O)c1ccc(NC(c2ccc(F)cc2)c2nnc(-c3ccccc3)o2)cc1 (stereo not given) -20.5%
Cc1ccc2nc(-c3ccncc3)c(Nc3ccc(C(C)C)cc3)n2c1 0.985%
CCOC(=O)c1[nH]c(C)c(CCC(=O)N2CCN(c3cccc(C)c3C)CC2)c1C 0%
CCOCCCNC(=O)c1cn(CC)c2ccc(S(=O)(=O)N3CCc4ccccc4C3)cc2c1=O 0.725%
Cc1ccc(CSc2nc(-c3ccc(C(C)(C)C)cc3)nc3cc(=O)[nH]n23)cc1 2.32%
CCc1ccc(Nc2sc(C(=O)c3ccccc3)c(N)c2S(C)(=O)=O)cc1 0.673%
